Among all 110,000 compounds or so, about 230 (0.21%) showed an effect of 50% or more. This is one part of the list.
Molecular target: DPAP1 (Plasmodium falciparum, UniProt Q8IIJ9)
Assay: primary screen, percent inhibition; read by cleavage of a fluorogenic dipeptide substrate; higher = more effect of the substance
Parameters: species or system P. falciparum D10 trophozoite lysates; single well
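Also: 30 min substrate incubation versus DMSO and 10 µM JCP410 controls.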

Chain of DPAP1 (Q8IIJ9 whole entry, looked up): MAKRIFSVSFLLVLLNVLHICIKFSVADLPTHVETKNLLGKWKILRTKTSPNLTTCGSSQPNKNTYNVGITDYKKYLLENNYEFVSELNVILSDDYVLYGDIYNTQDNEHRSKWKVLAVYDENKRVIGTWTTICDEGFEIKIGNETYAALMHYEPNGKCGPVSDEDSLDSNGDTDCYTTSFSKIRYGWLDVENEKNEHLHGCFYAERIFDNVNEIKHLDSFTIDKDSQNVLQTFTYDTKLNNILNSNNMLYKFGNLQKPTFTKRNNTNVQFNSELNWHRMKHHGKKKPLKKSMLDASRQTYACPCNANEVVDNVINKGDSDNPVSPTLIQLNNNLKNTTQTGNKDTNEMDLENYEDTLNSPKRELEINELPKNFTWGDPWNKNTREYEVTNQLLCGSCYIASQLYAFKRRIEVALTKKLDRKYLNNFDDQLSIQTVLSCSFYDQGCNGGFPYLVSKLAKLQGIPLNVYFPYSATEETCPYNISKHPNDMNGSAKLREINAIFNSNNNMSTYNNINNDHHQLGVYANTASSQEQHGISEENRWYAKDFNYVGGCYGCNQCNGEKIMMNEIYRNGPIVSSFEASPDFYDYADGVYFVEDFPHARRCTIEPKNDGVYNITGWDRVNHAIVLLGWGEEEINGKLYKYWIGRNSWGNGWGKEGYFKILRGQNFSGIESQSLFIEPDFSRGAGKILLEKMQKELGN

| SMILES | % Inhibition @ 10 uM |
| --- | --- |
| O=C(Nc1ccc(Cl)cc1)C(=O)NC1CCCC1 | -7.18% |
| CCCCc1ccc(-c2nc(C3CCC(C4CCC(CCC)CC4)CC3)no2)cc1 (stereo not drawn) | 0.98% |
| COc1ccc(CCNCc2ccccc2C)cc1OC | -2.37% |
| O=C(NCc1ccccc1Cl)c1cnn2c(C(F)(F)F)cc(-c3cccs3)nc12 | 1.27% |
| Cc1ccc(C(=O)Nc2ccc(S(=O)(=O)N3CCC(C)CC3)cc2)cc1 | 0.964% |
| CC(C(=O)NCc1ccccn1)n1c2ccccc2c2cnn(C)c(=O)c21 (stereo not drawn) | -3.79% |
| Cc1[nH]nc2c1C(c1cc(Br)ccc1OCc1cccc(F)c1)C(C#N)=C(N)O2 (stereo not drawn) | 0.121% |
| Cc1ccc2onc(CNC(=O)N3CCC(C)CC3)c2c1 | -4.02% |
| Cn1c(CNc2ccc(Cl)cc2)nc2ccccc21 | -1.37% |
| CCOC(=O)N1CCN(c2c(NCCCN(CC)Cc3ccccc3)c(=O)c2=O)CC1 | 1.93% |
| CCC(C)NC(=O)Cn1ncc2c3ccccc3n(Cc3cccc(Cl)c3)c2c1=O (stereo not drawn) | 1.8% |
| O=C(O)c1cccc2[nH]ncc12 | 6.3% |
| CC1=C(c2ccc(C)c(C)c2)S(=O)(=O)N=C1N1CCC(C(=O)NCc2ccc3c(c2)OCO3)CC1 | -0.835% |
| Cc1nc(Oc2ccccc2)cc(-n2nc(C)c(C(N)=O)c2N)n1 | -3.65% |
| Cc1nnc2c(NCCN3CCOCC3)nc3ccccc3n12 | 4.95% |
| O=C(CSCc1ccccc1)Nc1nnc(COc2ccc(Cl)cc2)s1 | 2.3% |
| c1ccc2c(CN3CCCCC3)csc2c1 | 0.82% |
| CCOc1ccc(N2C(=O)CC(N(Cc3ccco3)C(=O)c3ccc(Cl)cc3)C2=O)cc1 (stereo not drawn) | 1.01% |
| N#Cc1c(C(F)(F)F)cc(-c2ccc(F)cc2)nc1SCC(=O)NC1CC1 | 4.75% |
| CCCCCCC1CCC(C(=O)NC(CCSC)C(=O)O)CC1 (stereo not drawn) | 0.505% |
| CCOc1ccc(-n2c(CN(CC)CCO)nc3ccccc3c2=O)cc1 | -3.33% |
| CCOc1ccccc1/C=C/C1=[N+](C)c2ccc(C(=O)OC)cc2C1(C)C | -3.41% |
| Cc1sc(C2C(C#N)=C(N)OC3=C2C(=O)CC(C)(C)C3)cc1COc1ccc(Br)cc1 (stereo not drawn) | 1.03% |
| CCOCCCNC(=O)CCS(=O)(=O)Cc1ccc(C)cc1 | 0.514% |
| CCOc1ccccc1C1C(C(=O)OC)=C(N)OC2=C1C(=O)CC(C)(C)C2 (stereo not drawn) | 23.4% |
| CN1CCC(N2CCN(Cc3ccccc3)CC2)CC1 | 1.57% |
| CC(=O)Nc1cccc(Nc2nc(N3CCOCC3)nc(N(c3ccccc3)c3ccccc3)n2)c1 | 3.31% |
